Read counts are not given, so values of variants with three or more changes are uncertain.
B1: LINE1-mini (parent)
chain: GGCAGAGCUCAACACAGCGUGGCAAAGUGGCUGUGGCUAGACUGCC

Variants of: B1
Experiment: self-cleavage, relative activity (ratio to wild type); higher = more cleavage; in vitro, sequencing; the parent is a self-cleaving ribozyme
Work on G7U C8G A25C G27C G40U yielded a self-cleavage of 0.13. G7U A39C A41U gave a self-cleavage of 0.53. With G7C C13A U20C the self-cleavage was 0.01. Work on G7C U34C G40U yielded a self-cleavage of 0.04. With G7U A14C A25G G36U the self-cleavage was 0.11. With G7C C18U G27U C37G the self-cleavage was 0.04. With G7U A24U C31U the self-cleavage was 0.13. In the case of G7C G19U U32A A39C, the self-cleavage is reported as 0.09. With G7C U9A U34G G44A the self-cleavage was 0.01. Variant G7U C8G G29U C42U has a self-cleavage of 0.13. Variant G7C U28G G33U has a self-cleavage of 0.09. Variant G7U A16G U28G C37G has a self-cleavage of 0.01. Variant G7U A11C C13G A24U A26G G33U has a self-cleavage of 0.01. For G7C C13U G29A G36U A41U, the self-cleavage was 0.16. G7C U38C G44A showed a self-cleavage of 0.14. G7C U9A C10U G33C gave a self-cleavage of 0.04. G7U A12C C15G A41G gave a self-cleavage of 0.01. Variant G7C C18U G35U G36U C42U has a self-cleavage of 0.04. G7C G19C U43A G44C showed a self-cleavage of 0.03. G7C U28G G30A G40U C42A showed a self-cleavage of 0.13. For G7C C15G U34G U43C, the self-cleavage was 0.01. With G7U A24G A26G G40C C42A the self-cleavage was 0.05. For G7C G36A A41G, the self-cleavage was 0.04. G7U C10A C37G showed a self-cleavage of 0.04. Variant G7C G22U C45G has a self-cleavage of 0.14. G7U C10A G19A G21U G22U G40A A41C C46A gave a self-cleavage of 0.01. Work on G7C G19A A41U yielded a self-cleavage of 0.21. G7U C8A C10U A14U C31U showed a self-cleavage of 0.09. G7U A11C U43C showed a self-cleavage of 0.05. For G7U A39U G40A, the self-cleavage was 0.12. Work on G7U C10A U20G C42G yielded a self-cleavage of 0.01. In the case of G7C C31U G35U C46G, the self-cleavage is reported as 0.04. G7U C10G A26U gave a self-cleavage of 0.04. For G7C G30U U38C, the self-cleavage was 0.18. For G7C G19A G30C G35U C42U, the self-cleavage was 0.12. G7C C10U G22C G33A gave a self-cleavage of 0.05. G7C G17U C18A G19A G44C showed a self-cleavage of 0.03. Variant G7U A14G C42G has a self-cleavage of 0.22. G7C C15G G19A G22U G30A C31U showed a self-cleavage of 0.04. In the case of G7C G22U C46A, the self-cleavage is reported as 0.08. With G7C G21C C37A U43A the self-cleavage was 0.52. Variant G7C C13U U32G G35U has a self-cleavage of 0.15. Work on G7U A25G G30U yielded a self-cleavage of 0.06. G7C C13G G30C G40C showed a self-cleavage of 0.04. Work on G7C U9C G22C G29A yielded a self-cleavage of 0. G7C U28C C31G A39G showed a self-cleavage of 0. Variant G7C U9G G44U has a self-cleavage of 0.04. With G7C G27C G29C the self-cleavage was 0.01. For G7U A11G A24U C37A, the self-cleavage was 0.01. In the case of G7U C10A A11G G17C A24G, the self-cleavage is reported as 0.01. For G7C G35A G36C C45U, the self-cleavage was 0.05. G7C C13U G17C A39G G40U showed a self-cleavage of 0.05. In the case of G7C C13U A26C A39G G44U C46U, the self-cleavage is reported as 1.33. G7U C8A G29A gave a self-cleavage of 0.11. With G7C C23U G36U A39G C42A the self-cleavage was 0.02. Work on G7U C8A C10A G21A A24U U28G yielded a self-cleavage of 0.02. G7U A16C A26G showed a self-cleavage of 0.33. In the case of G7C G21U U28C U32A G33A, the self-cleavage is reported as 0.05. In the case of G7C C10G G30U, the self-cleavage is reported as 0.03. G7U A14C C37A gave a self-cleavage of 0.01. Variant G7C G27A C31U has a self-cleavage of 0.09. For G7C G30U C42U, the self-cleavage was 0.05. G7U A16C G22C G27U G33U gave a self-cleavage of 0.17. With G7C G17U U28C G29U the self-cleavage was 0.06. In the case of G7C C10G A12C G35U A39C, the self-cleavage is reported as 0.03. Variant G7C C13U G22U U38G A39U C42A has a self-cleavage of 0.06. In the case of G7C U28A G35A G36U, the self-cleavage is reported as 0.01. In the case of G7C C15G U20A G22A, the self-cleavage is reported as 0.11. With G7C C23U C45U the self-cleavage was 0.28. Work on G7U A24C G30U G33A G36U yielded a self-cleavage of 0.2. G7C C23A G35C G44A showed a self-cleavage of 0.06. G7U C10A G19U G35C showed a self-cleavage of 0.02. G7U A12U U20G U34C showed a self-cleavage of 0.05. Variant G7U A16U A39C G40U has a self-cleavage of 0.07. For G7U A11U G30C, the self-cleavage was 0.02. G7C C18U G40U gave a self-cleavage of 0.19. G7C G27U G29C C31U gave a self-cleavage of 0.08. Work on G7C G22U A25C G27U G40U yielded a self-cleavage of 0.43. Work on G7C G22A U38G C45A yielded a self-cleavage of 0.01. G7U C8U G30U G40U U43A showed a self-cleavage of 1.21. G7U A12C G27A G29U showed a self-cleavage of 0.01. G7C U9A C23G gave a self-cleavage of 0.08. In the case of G7C U9G U20G G21U, the self-cleavage is reported as 0.06. G7U C8A U9A C31G C37U gave a self-cleavage of 0.04. In the case of G7C C13A A14U C23U, the self-cleavage is reported as 0.09. For G7C G22U G30C, the self-cleavage was 0.05. In the case of G7C G21C C31U G35C U43C, the self-cleavage is reported as 0.02. For G7U C10A A24U U34A, the self-cleavage was 0.03. With G7C C18U G22C C46A the self-cleavage was 0.03. For G7U C8U C23G U32G G44C, the self-cleavage was 0.09. For G7C C10G C13A, the self-cleavage was 0.01. With G7C C15U U34G G44U C45U the self-cleavage was 0.1. G7C G33A G36U U38C showed a self-cleavage of 0.07. With G7U A25G G40A the self-cleavage was 0.01. Work on G7C C13U G30A G40U yielded a self-cleavage of 0.25. G7C C15A G29U showed a self-cleavage of 0.1. G7C C18U G36U C46A showed a self-cleavage of 0.1. In the case of G7C U28A U38C G40U, the self-cleavage is reported as 0.15. For G7U A24U G35C U38A G40C, the self-cleavage was 0.07. For G7U A16C U20A A24G G35U, the self-cleavage was 0.01. G7U A11C C15A A16C U32C showed a self-cleavage of 0.01. With G7U C10A C18G U20G G30C A39G the self-cleavage was 0. G7U A14U C15A showed a self-cleavage of 0.19. With G7U C8G C10A A39G C46A the self-cleavage was 0. G7C C13U A26C G40C showed a self-cleavage of 0.08. In the case of G7C U20G A26G G30U C42U, the self-cleavage is reported as 0. With G7U A12G G21C the self-cleavage was 0. In the case of G7U A16U C23U, the self-cleavage is reported as 0.16. With G7C U32C G33U C45A the self-cleavage was 0.11. Variant G7C C13A G17U A26U has a self-cleavage of 0.01. G7C U20A G30A C37A gave a self-cleavage of 0.06. Work on G7C U20C G21U A39C G40U yielded a self-cleavage of 0.05. Work on G7U C8U C10A G27C yielded a self-cleavage of 0.02. For G7C C13G A14C G21C, the self-cleavage was 0.1. G7C G19C G21A C23G C42U G44U gave a self-cleavage of 0.07. In the case of G7U A24C C37A, the self-cleavage is reported as 0.07. For G7U A14C C31G U38C, the self-cleavage was 0. In the case of G7U A14G U38C, the self-cleavage is reported as 0.02. Work on G7U A14G U38G yielded a self-cleavage of 0.04. In the case of G7U A24C A41C U43G, the self-cleavage is reported as 0.2. G7C C13G C18G G33U showed a self-cleavage of 0.03. G7C C15U G21U C31U showed a self-cleavage of 0.04. Work on G7C G19A G30C G36U G40A yielded a self-cleavage of 0.1. Work on G7U C8U U32C C45U yielded a self-cleavage of 0.09. With G7C U9A G17A A25C C37A the self-cleavage was 0.02. Variant G7C C18A A25C U28A has a self-cleavage of 0.03. In the case of G7C C31U G33A, the self-cleavage is reported as 0.04. G7U C8G A16C G35A gave a self-cleavage of 0.06. For G7C G19A C23A U34A, the self-cleavage was 0.01. G7C U20G U32A showed a self-cleavage of 0.23. G7U A14C U43A C46A showed a self-cleavage of 0.18. In the case of G7U A12G G27U, the self-cleavage is reported as 0.01. G7U A12G U20C C31A gave a self-cleavage of 0.01. Work on G7U C8U A11C yielded a self-cleavage of 0.04. G7U A12G U20C G22U gave a self-cleavage of 0.02. G7U C10A G36U showed a self-cleavage of 0.05. In the case of G7U A26U C37A, the self-cleavage is reported as 0.01. Variant G7U C10A A25U G36A has a self-cleavage of 0.02. For G7C G17U G44C, the self-cleavage was 0.06. Work on G7U A14G G30A yielded a self-cleavage of 0.03. For G7U A12U A24U U28G G35A, the self-cleavage was 0.1. Variant G7C C10U G36A A41G has a self-cleavage of 0.02. With G7C C31G G35A the self-cleavage was 0.37. In the case of G7C G17C C18U, the self-cleavage is reported as 0.05. With G7C C18A G22C A24G A25C A39U C46A the self-cleavage was 0.02. With G7C G21U A25C the self-cleavage was 0.05. G7C G36U A39C gave a self-cleavage of 0.1. G7C C18U G22A U28A gave a self-cleavage of 0.06. With G7U C10A A12G G35U C46U the self-cleavage was 0. In the case of G7U C8U A25C C42G, the self-cleavage is reported as 0.25. G7U A16U C42G showed a self-cleavage of 0.25. In the case of G7U A16U G33C, the self-cleavage is reported as 0.24. G7U C10G A14U gave a self-cleavage of 0.04. Work on G7C C23A U32G A41G yielded a self-cleavage of 0.07. Variant G7C C18G U28C A41C has a self-cleavage of 0.06. G7C C31G C37G gave a self-cleavage of 0.01. In the case of G7C C10U A11G C37A C45G, the self-cleavage is reported as 0. G7U C10A C13U showed a self-cleavage of 0.01. With G7C G35A C42U the self-cleavage was 0.06. G7C G19A C23U G30U gave a self-cleavage of 0.01. For G7C G33U G36U C46U, the self-cleavage was 0.24. Variant G7C G17U G29U has a self-cleavage of 0.08. Work on G7C C23A U38A A41C yielded a self-cleavage of 0.08. In the case of G7C U9A G30U G33C G36U G40A, the self-cleavage is reported as 0.03. For G7C C15A U20A, the self-cleavage was 0.02. In the case of G7U A16U C23G U38G U43C, the self-cleavage is reported as 0.02. G7C G17U A26U A41C gave a self-cleavage of 0.03.

From the RNAGym collection of RNA variant scans (doi:10.7554/elife.90254)
